Our source for the binding values is paper PMC3827261.

Protein sequences, listed by entry. Tags and fused reporters are not part of them.
UniProt Q96LC9: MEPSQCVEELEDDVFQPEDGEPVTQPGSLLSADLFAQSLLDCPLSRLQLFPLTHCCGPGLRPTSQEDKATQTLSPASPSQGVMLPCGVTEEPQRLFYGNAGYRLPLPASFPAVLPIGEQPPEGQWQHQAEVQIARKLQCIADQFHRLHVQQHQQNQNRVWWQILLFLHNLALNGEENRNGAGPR

Test [1] deals with HER2 (human (endogenous in SK-BR3, BT-474, MDA-MB-453)) (UniProt P04626). As to the kind of experiment: co-IP; IP with HER2 antibody (control rabbit IgG) from whole cell lysates in RIPA buffer, 4°C overnight, protein A-agarose, immunoblot; SK-BR3 and BT-474; MDA-MB-453 with or without heregulin (100 ng/mL, 30 min) or lapatinib (10 µM, 2 hrs).
For test [2] the target is unchanged. As to the kind of experiment: co-IP; HER2 immunoprecipitated from equal amounts of mitochondrial (ME) and non-mitochondrial extracts (NME) of BT-474 cells, immunoblot. (In general: Immunoblotting shows a protein as a band on a membrane.)
Test [3] shares this target. The experiment in a line: co-IP; MDA-MB-453 cells transfected with WT-PUMA or TM-PUMA; IP with HER2 antibody from whole cell lysate, immunoblot.

Results are given in words; binding and its absence hold for the method and conditions named. In cells and extracts the contact can be indirect. Some results given as binding are weak or reduced against the parent protein; the word gives no strength. For some assays here: Where a sequence is shown, tags or fusion partners need not be part of it.

Take Bmf (from UniProt Q96LC9 1-184): the binding entry in test [1] was “no binding”.

B1: p53 upregulated modulator of apoptosis (PUMA) (protein, UniProt Q9BXH1 1-193)
chain: MARARQEGSSPEPVEGLARDGPRPFPLGRLVPSAVSCGLCEPGLAAAPAAPTLLPAAYLCAPTAPPAVTAALGGSRWPGGPRSRPRGPRPDGPQPSLSLAEQHLESPVPSAPGALAGGPTQAAPGVRGEEEQWAREIGAQLRRMADDLNAQYERRRQEEQQRHRPSPWRVLYNLIMGLLPLPRGHRAPEMEPN
Regarding B1, the binding result in test [2] and in test [1] was “binds” in each case.

B2: HA-tagged wild-type PUMA (protein, UniProt Q9BXH1 1-193)
chain: MARARQEGSSPEPVEGLARDGPRPFPLGRLVPSAVSCGLCEPGLAAAPAAPTLLPAAYLCAPTAPPAVTAALGGSRWPGGPRSRPRGPRPDGPQPSLSLAEQHLESPVPSAPGALAGGPTQAAPGVRGEEEQWAREIGAQLRRMADDLNAQYERRRQEEQQRHRPSPWRVLYNLIMGLLPLPRGHRAPEMEPN
For the molecule B2, in test [3], the binding result is listed as “binds”.

B3: Bad (protein, UniProt Q92934 1-168)
chain: MFQIPEFEPSEQEDSSSAERGLGPSPAGDGPSGSGKHHRQAPGLLWDASHQQEQPTSSSHHGGAGAVEIRSRHSSYPAGTEDDEGMGEEPSPFRGRSRSAPPNLWAAQRYGRELRRMSDEFVDSFKKGLPRPKSAGTATQMRQSSSWTRVFQSWWDRNLGRGSSAPSQ
In the case of B3, in test [1], the binding entry is “no binding”.
